# Experimental data published in the supplement of paper PMC8728848.
# The other results are listed elsewhere or left out.
# B1: Siglec-F (Mus musculus), Q920G3 (protein)
# chain: MRWAWLLPLLWAGCLATDGYSLSVTGSVTVQEGLCVFVACQVQYPNSKGPVFGYWFREGANIFSGSPVATNDPQRSVLKEAQGRFYLMGKENSHNCSLDIRDAQKIDTGTYFFRLDGSVKYSFQKSMLSVLVIALTEVPNIQVTSTLVSGNSTKLLCSVPWACEQGTPPIFSWMSSALTSLGHRTTLSSELNLTPRPQDNGTNLTCQVNLPGTGVTVERTQQLSVIYAPQKMTIRVSWGDDTGTKVLQSGASLQIQEGESLSLVCMADSNPPAVLSWERPTQKPFQLSTPAELQLPRAELEDQGKYICQAQNSQGAQTASVSLSIRSLLQLLGPSCSFEGQGLHCSCSSRAWPAPSLRWRLGEGVLEGNSSNGSFTVKSSSAGQWANSSLILSMEFSSNHRLSCEAWSDNRVQRATILLVSGPKVSQAGKSETSRGTVLGAIWGAGLMALLAVCLCLIFFTVKVLRKKSALKVAATKGNHLAKNPASTINSASITSSNIALGYPIQGHLNEPGSQTQKEQPPLATVPDTQKDEPELHYASLSFQGPMPPKPQNTEAMKSVYTEIKIHKC
# How the values were obtained:
# Assay in all cases: glycan array binding signal (z-score within array); higher = stronger binding
# Details in all cases: glycan notation: IUPAC condensed, linker removed
# [1] = molecular target: Fuc(a1-2)[Gal(a1-3)]Gal(b1-3)GlcNAc(b1-6)GalNAc
# How it was run: (§1)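 From the Consortium for Functional Glycomics database, 3228 arrays were curated, keeping only those whose protein sequence was available. Binding is given as a within-array Z-score averaged across arrays sharing a protein sequence and across linkers. Negative Z-scores can be read as non-binding.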
# [2] = molecular target: Fuc(a1-2)[Gal(a1-3)]Gal(b1-4)Glc
# How it was run: as §1
# [3] = molecular target: Fuc(a1-2)[Gal(a1-3)]Gal(b1-4)GlcNAc
# How it was run: as §1
# [4] = molecular target: Fuc(a1-2)[Gal(a1-3)]Gal(b1-4)GlcNAc(b1-2)Man
# How it was run: as §1
# [5] = molecular target: Fuc(a1-2)[Gal(a1-3)]Gal(b1-4)GlcNAc(b1-2)Man(a1-3)[Fuc(a1-2)[Gal(a1-3)]Gal(b1-4)GlcNAc(b1-2)Man(a1-6)]Man(b1-4)GlcNAc(b1-4)GlcNAc
# How it was run: as §1
# [6] = molecular target: Fuc(a1-2)[Gal(a1-3)]Gal(b1-4)GlcNAc(b1-2)Man(a1-3)[Fuc(a1-2)[Gal(a1-3)]Gal(b1-4)GlcNAc(b1-2)Man(a1-6)]Man(b1-4)GlcNAc(b1-4)[Fuc(a1-6)]GlcNAc
# How it was run: as §1
# [7] = molecular target: Fuc(a1-2)[Gal(a1-3)]Gal(b1-4)GlcNAc(b1-3)GalNAc
# How it was run: as §1
# [8] = molecular target: Fuc(a1-2)[Gal(a1-3)]Gal(b1-4)GlcNAc(b1-3)[Fuc(a1-2)[Gal(a1-3)]Gal(b1-4)GlcNAc(b1-6)]GalNAc
# How it was run: as §1
# [9] = molecular target: Fuc(a1-2)[Gal(a1-3)]Gal(b1-4)GlcNAc(b1-6)GalNAc
# How it was run: as §1
# [10] = molecular target: Fuc(a1-2)[Gal(a1-3)]Gal(b1-4)[Fuc(a1-3)]Glc
# How it was run: as §1
# [11] = molecular target: Fuc(a1-2)[Gal(a1-3)]Gal(b1-4)[Fuc(a1-3)]GlcNAc
# How it was run: as §1
# [12] = molecular target: Fuc(a1-2)[Gal(a1-3)]Gal(b1-4)[Fuc(a1-3)]GlcNAc(b1-3)GalNAc
# How it was run: as §1
# [13] = molecular target: Fuc(a1-2)[Gal(a1-4)]Gal(b1-4)GlcNAc
# How it was run: as §1
# [14] = molecular target: Fuc(a1-2)[GalNAc(a1-3)]Gal
# How it was run: as §1
# [15] = molecular target: Fuc(a1-2)[GalNAc(a1-3)]Gal(b1-3)GalNAc(a1-3)[Fuc(a1-2)]Gal(b1-4)GlcNAc
# How it was run: as §1
# [16] = molecular target: Fuc(a1-2)[GalNAc(a1-3)]Gal(b1-3)GalNAc(b1-3)Gal(a1-4)Gal(b1-4)Glc
# How it was run: as §1
# [17] = molecular target: Fuc(a1-2)[GalNAc(a1-3)]Gal(b1-3)GlcNAc
# How it was run: as §1
# [18] = molecular target: Fuc(a1-2)[GalNAc(a1-3)]Gal(b1-3)GlcNAc(b1-2)Man(a1-3)[Fuc(a1-2)[GalNAc(a1-3)]Gal(b1-3)GlcNAc(b1-2)Man(a1-6)]Man(b1-4)GlcNAc(b1-4)GlcNAc
# How it was run: as §1
# [19] = molecular target: Fuc(a1-2)[GalNAc(a1-3)]Gal(b1-3)GlcNAc(b1-2)Man(a1-3)[Fuc(a1-2)[GalNAc(a1-3)]Gal(b1-3)GlcNAc(b1-2)Man(a1-6)]Man(b1-4)GlcNAc(b1-4)[Fuc(a1-6)]GlcNAc
# How it was run: as §1
# [20] = molecular target: Fuc(a1-2)[GalNAc(a1-3)]Gal(b1-3)GlcNAc(b1-3)GalNAc
# How it was run: as §1
# [21] = molecular target: Fuc(a1-2)[GalNAc(a1-3)]Gal(b1-3)GlcNAc(b1-6)GalNAc
# How it was run: as §1
# [22] = molecular target: Fuc(a1-2)[GalNAc(a1-3)]Gal(b1-4)Glc
# How it was run: as §1
# [23] = molecular target: Fuc(a1-2)[GalNAc(a1-3)]Gal(b1-4)GlcNAc
# How it was run: as §1
# [24] = molecular target: Fuc(a1-2)[GalNAc(a1-3)]Gal(b1-4)GlcNAc(b1-2)Man
# How it was run: as §1
# [25] = molecular target: Fuc(a1-2)[GalNAc(a1-3)]Gal(b1-4)GlcNAc(b1-2)Man(a1-3)[Fuc(a1-2)[GalNAc(a1-3)]Gal(b1-4)GlcNAc(b1-2)Man(a1-6)]Man(b1-4)GlcNAc(b1-4)GlcNAc
# How it was run: as §1
# [26] = molecular target: Fuc(a1-2)[GalNAc(a1-3)]Gal(b1-4)GlcNAc(b1-2)Man(a1-3)[Fuc(a1-2)[GalNAc(a1-3)]Gal(b1-4)GlcNAc(b1-2)Man(a1-6)]Man(b1-4)GlcNAc(b1-4)[Fuc(a1-6)]GlcNAc
# How it was run: as §1
# [27] = molecular target: Fuc(a1-2)[GalNAc(a1-3)]Gal(b1-4)GlcNAc(b1-3)Gal(b1-4)GlcNAc
# How it was run: as §1
# [28] = molecular target: Fuc(a1-2)[GalNAc(a1-3)]Gal(b1-4)GlcNAc(b1-3)Gal(b1-4)GlcNAc(b1-3)Gal(b1-4)GlcNAc
# How it was run: as §1
# [29] = molecular target: Fuc(a1-2)[GalNAc(a1-3)]Gal(b1-4)GlcNAc(b1-3)GalNAc
# How it was run: as §1
# [30] = molecular target: Fuc(a1-2)[GalNAc(a1-3)]Gal(b1-4)GlcNAc(b1-3)[Fuc(a1-2)[GalNAc(a1-3)]Gal(b1-4)GlcNAc(b1-6)]GalNAc
# How it was run: as §1
binder,measurement,setting,value
B1,glycan array binding signal (z-score),[1],0.012
same,glycan array binding signal (z-score),[2],-0.112
same,glycan array binding signal (z-score),[3],-0.127
same,glycan array binding signal (z-score),[4],-0.144
same,glycan array binding signal (z-score),[5],-0.031
same,glycan array binding signal (z-score),[6],-0.067
same,glycan array binding signal (z-score),[7],-0.097
same,glycan array binding signal (z-score),[8],0.018
same,glycan array binding signal (z-score),[9],-0.106
same,glycan array binding signal (z-score),[10],-0.126
same,glycan array binding signal (z-score),[11],-0.107
same,glycan array binding signal (z-score),[12],0.07
same,glycan array binding signal (z-score),[13],-0.108
same,glycan array binding signal (z-score),[14],-0.12
same,glycan array binding signal (z-score),[15],-0.104
same,glycan array binding signal (z-score),[16],-0.151
same,glycan array binding signal (z-score),[17],-0.128
same,glycan array binding signal (z-score),[18],-0.107
same,glycan array binding signal (z-score),[19],-0.099
same,glycan array binding signal (z-score),[20],-0.094
same,glycan array binding signal (z-score),[21],-0.114
same,glycan array binding signal (z-score),[22],-0.113
same,glycan array binding signal (z-score),[23],-0.129
same,glycan array binding signal (z-score),[24],-0.156
same,glycan array binding signal (z-score),[25],-0.049
same,glycan array binding signal (z-score),[26],-0.049
same,glycan array binding signal (z-score),[27],-0.118
same,glycan array binding signal (z-score),[28],-0.111
same,glycan array binding signal (z-score),[29],-0.124
same,glycan array binding signal (z-score),[30],-0.106
